# Experimental data published in PubChem BioAssay AID488969 (Vanderbilt High Throughput Screening Facility, 2010).
# Whole data set: some 110,000 compounds, median “z-score” near -0.1, cut for the highest 2% near 2. The list shows a part of the results.
# Biological target: Metabotropic glutamate receptor 8 (Rattus norvegicus) (UniProt P70579)
# Assay: mGluR8 Gi/Go-coupled signaling modulation – cell-based, rat, thallium flux, HTS, primary screen (AID 488969)
# Settings: HEK293 rat mGluR8, GIRK (G protein-gated inwardly rectifying potassium channel) thallium flux, FluoZin2; at 10 µM; stronger effect = higher value; submaximal glutamate (EC20) added with thallium
# UniProt P70579, sequence (P70579 whole entry, looked up): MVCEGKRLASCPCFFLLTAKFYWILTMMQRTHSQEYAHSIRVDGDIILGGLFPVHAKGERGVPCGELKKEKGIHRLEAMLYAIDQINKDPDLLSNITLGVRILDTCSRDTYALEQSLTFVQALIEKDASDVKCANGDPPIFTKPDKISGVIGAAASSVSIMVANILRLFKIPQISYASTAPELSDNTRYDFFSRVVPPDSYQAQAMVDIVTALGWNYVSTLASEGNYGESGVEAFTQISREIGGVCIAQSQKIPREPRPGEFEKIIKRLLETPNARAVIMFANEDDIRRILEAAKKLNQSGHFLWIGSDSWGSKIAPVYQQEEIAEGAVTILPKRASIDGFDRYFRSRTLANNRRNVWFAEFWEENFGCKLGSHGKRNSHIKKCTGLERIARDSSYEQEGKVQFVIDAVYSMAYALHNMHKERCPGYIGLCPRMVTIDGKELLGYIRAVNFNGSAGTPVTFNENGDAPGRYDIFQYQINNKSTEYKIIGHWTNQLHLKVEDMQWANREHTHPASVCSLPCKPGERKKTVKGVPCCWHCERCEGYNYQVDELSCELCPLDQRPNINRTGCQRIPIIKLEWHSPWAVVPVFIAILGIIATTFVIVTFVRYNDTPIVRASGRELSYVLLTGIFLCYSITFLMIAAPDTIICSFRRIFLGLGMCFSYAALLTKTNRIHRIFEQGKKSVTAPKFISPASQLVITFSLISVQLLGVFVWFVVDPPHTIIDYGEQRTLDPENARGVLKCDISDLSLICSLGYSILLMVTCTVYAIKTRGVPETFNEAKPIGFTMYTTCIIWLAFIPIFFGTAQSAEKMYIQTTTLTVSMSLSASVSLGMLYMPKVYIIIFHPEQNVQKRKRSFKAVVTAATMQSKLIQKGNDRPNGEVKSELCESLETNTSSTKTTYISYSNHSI
row,Structure (SMILES),z-score
1,Cc1nc(Nc2nc(-c3ccccc3)cc(=O)[nH]2)nc2ccccc12,-0.285
2,O=C1c2cccnc2C(Nc2ccccc2)N1Cc1ccco1 (configuration not stated),-0.0682
3,CC(C(=O)O)N1C(=O)C2C3CC(C2C1=O)C1C(c2ccccc2)c2sc(=O)[nH]c2SC31 (configuration not stated),-0.0636
4,O=C(c1cc(-c2ccccc2Cl)on1)N1CCN(C(=O)c2ccco2)CC1,0.424
5,COc1cc(C(=O)NCc2ccco2)c(Br)c(OC)c1OC,-1.21
6,CN(C)S(=O)(=O)c1cc(C(=O)O)c(NC2CCCCC2)cc1Cl,-2.9
7,CS(=O)(=O)c1ccc(Cl)c(NC(=O)c2ccc3ccccc3c2)c1,-0.115
8,CCn1c(=O)n(CC)c2cc(S(=O)(=O)N3CCOCC3)ccc21,-0.206
9,CCCCC(CC(C)O)c1n[nH]c(=S)n1-c1ccccc1 (configuration not stated),-0.118
10,COCCNC(=O)COC(=O)/C=C/c1cnc2ccccc2n1,-0.0356
11,N=c1ccn(Cc2ccc(Cl)c(Cl)c2)cc1,0.00793
12,Cc1c(C)[n+](=O)c(-c2cccs2)c(C)n1[O-],-0.242
13,Cc1cc(NS(=O)(=O)c2ccc(NC(=O)c3cc4ccccc4o3)cc2)nc(C)n1,-1.23
14,CCCSc1nc(O)c(C2OC(=O)c3c2ccc(OC)c3OC)c(=O)n1C (configuration not stated),-0.174
15,C=C(C)CC1N(c2cccc(OC)c2)C(=O)C2C(C(=O)O)C3C=CC21O3 (configuration not stated),-0.0137
16,CCOc1ccc(-n2c(=O)c3c4c(sc3n(CC(=O)NCc3ccco3)c2=O)CCC4)cc1,0.0326
17,CCOC(=O)c1sc2ccc(S(=O)(=O)N3CCOCC3)cc2c1N,0.0584
18,O=C(NC(Cc1c[nH]c2ccccc12)C(=O)Nc1ccc(F)c([N+](=O)[O-])c1)c1cccs1 (configuration not stated),-0.409
19,C/C(=N/NC(=O)c1sc(=S)n(C)c1C)c1ccccc1,0.314
20,CCCN1CCN(C(=O)c2cn(CC(C)C)c(=O)c3cc(OC)c(OC)cc23)CC1,-0.37
21,COc1ccc(C2CC(C(F)(F)F)n3nc(C(=O)NCCCn4ccnc4)cc3N2)cc1OC (configuration not stated),-0.288
22,CCC1(CC)Cc2ccccc2-c2nc3ccccc3c(=O)n21,-0.682
23,CC(C)(C)C1CCC(=NNC(=O)c2cc3c(s2)CCCC3)CC1 (configuration not stated),-0.603

row,Structure (SMILES),z-score
1,COc1cccc(-c2nnc(SCC(=O)N3CC(C)CC(C)C3)o2)c1 (configuration not stated),-0.181
2,O=C(Nc1ccsc1C(=O)N1CCCCCC1)c1ccccc1,-0.388
3,O=C(COc1ccc2c(c1)C(=O)CC1(CCCCC1)O2)NCc1ccccc1,-0.149
4,CN1/C(=C\C=C(/C#N)C(=O)Nc2ccccc2F)C(C)(C)c2ccccc21,-0.185
5,CC(C)(C)n1cnc2cc(NS(=O)(=O)c3ccccc3)ccc21,0.0342
6,COc1cc(C(=O)N2CCN(C(=O)CC(C)C)CC2)cc(OC)c1OC,0.884
7,CN(Cc1ccccc1)c1nc2c(c(=O)[nH]c(=O)n2C)n1Cc1ccccc1,-0.176
8,O=C(OCCOc1ccc(Br)cc1)c1cnccn1,-0.463
9,Cn1c(=O)oc2cc(S(=O)(=O)NC3CCN(Cc4ccccc4)CC3)ccc21,-0.316
10,COc1ccc(-c2nc(-c3ccccc3)c(-c3cc([N+](=O)[O-])ccc3C)[nH]2)cc1OC,-0.0477
11,O=C(Nc1cc(Cl)ccc1Cl)c1ccc(-c2ccccc2)cc1,0.577
12,C=C(C)C1CC=C(C)/C(=N/NC(=O)c2ccc(NC(=O)CCC)cc2)C1 (configuration not stated),1.79
13,O=C(Nc1nnc(Cc2ccccc2)s1)c1ccco1,-1.09
14,N#Cc1cc2c(N)c(C(=O)Nc3ccccc3)sc2nc1N,-0.112
15,O=C(NNC1CC(=O)N(c2ccc3c(c2)OCCO3)C1=O)c1ccccc1 (configuration not stated),-0.172
16,C=CCn1c(-c2ccc(Cl)cc2)ccc(C#N)c1=O,-0.191
17,CCCC(C)C(=O)Nc1ccc(Cl)cc1Cl (configuration not stated),-0.349
18,Cc1ccc(-n2nnnc2SCc2ccccn2)cc1C,-0.0348
19,COC(=O)c1ccc(C(=O)OC)c(NC(=O)CCc2ccc(C)o2)c1,-0.67
20,Nc1nnc(SCC(=O)Nc2cc(C(F)(F)F)ccc2N2CCOCC2)s1,-0.569
21,COc1ccc(OCC(=O)N/N=C2\CCCc3ccccc32)cc1,-0.0965
22,CCCn1c(SCC(=O)c2ccc3c(c2)OCCO3)nnc1C(C)C,0.298
23,Cc1ccc(OCC(=O)NNC(=O)C2CCN(c3ncccn3)CC2)cc1,0.269

row,Structure (SMILES),z-score
1,O=C(/C=C/Nc1ccc([N+](=O)[O-])cc1)c1ccc(Br)cc1,-0.483
2,CC1CCCC(C)N1/N=C/c1cc(Br)cc(Br)c1O (configuration not stated),-0.515
3,N/N=C(\c1ccccc1)C12CN3CN(CN(C3)C1)C2,-0.101
4,Cc1cc(-c2ccccc2)c(C#N)c(=S)[nH]1,0.152
5,COC(=O)c1cc(Cl)c(NC(=O)c2ccc(F)cc2)cc1OC,-0.134
6,Clc1ccc(SCCCCN2CCNCC2)cc1,0.34
7,Cc1cc(Oc2ccccc2)nc(-c2ccccc2)n1,-0.099
8,COc1cc(/C=C(\C#N)C(=O)NCC2CCCO2)ccc1OC(C)C (configuration not stated),-1.23
9,CCCCn1c(=O)c(F)cn(Cc2ccc(OC)c([N+](=O)[O-])c2)c1=O,0.141
10,CC1=C(C(=O)OC(C)C)C(c2cccc(F)c2)N2C(=O)C(C)SC2=N1 (configuration not stated),-1.71
11,CC(=O)c1ccc2c(c1)N(C)c1ccccc1S2,-0.0109
12,COC(=O)c1ccc(NC(=O)CSc2nnc(C(C)NC(=O)c3ccccc3Cl)n2C)cc1 (configuration not stated),0.368
13,O=C(N/N=C/c1ccc2c(c1)OCO2)c1ccc(Cn2cc([N+](=O)[O-])cn2)o1,-0.22
14,O=C1c2ccccc2C(=O)N1CCN1CCOCC1,0.138
15,Cc1cccc(NC(=O)Nc2cccc(Oc3c(F)c(F)c(F)c(F)c3F)c2)c1,0.426
16,O=S(=O)(NCC1CCCO1)c1ccc(Oc2ccccc2)cc1 (configuration not stated),0.278
17,Nc1cc(N)nc(SCC(=O)NNC(=O)c2ccc(Cl)cc2)n1,0.373
18,CCOC(=O)c1c(C)n(C)c2ccc(OC(C)C(=O)OC)cc12 (configuration not stated),-0.484
19,COc1ccc(N2CCN(C(=O)CSc3nnc(-c4cccnc4)n3-c3ccc(F)cc3)CC2)cc1,-0.412
20,O=C(CCC1COc2ccccc2O1)NCc1ccco1 (configuration not stated),0.438
21,CCCOc1ccccc1C1C(C(=O)OC)=CN(C(C)C)C=C1C(=O)OC,1.83
22,COc1ccc(C2C(C#N)=C(N)Oc3c2oc(CO)cc3=O)c(OC)c1OC (configuration not stated),-0.186
23,Cc1ccc(NC(=O)CN2CCC(C(=O)c3ccc4c(c3)OCCO4)CC2)cc1,-0.152

row,Structure (SMILES),z-score
1,CCc1nnc(NC(=O)CCC(=O)N2CCN(c3ccccn3)CC2)s1,-0.0154
2,CNC(=O)CSc1nnnn1-c1ccc2c(c1)OCCO2,0.0843
3,COc1cnn(-c2cc(Oc3ccc(C)cc3)ncn2)c(=O)c1Cl,-0.202
4,CC1CCCN(C(=O)CSc2nc3ccccc3o2)C1 (configuration not stated),0.161
5,c1ccc(-c2ccnc3nc(-n4cccc4)nn23)cc1,-0.562
6,CSc1ccc(S(=O)(=O)NCc2ccccc2)cc1,0.252
7,NCCc1nnc(SCc2c(F)cccc2Cl)o1,-0.0454
8,O=C(CCS(=O)CCC(=O)NCc1ccccc1)NCc1ccccc1,-0.151
9,CCOc1cccc(-n2nnnc2-c2ccc(OC)cc2)c1,-0.342
10,Cc1ccc(S(=O)(=O)/N=C(\c2ccc(Cl)cc2)N2CCOCC2)cc1,0.0402
11,COc1ccccc1/C=N/n1c(N)c(C(=O)NC2CCCCC2)c2nc3ccccc3nc21,0.122
12,CCc1ccc(NC(=O)c2cc(-c3ccco3)on2)cc1,0.0921
13,Cc1ccc(C(=O)Nc2sc3c(c2C(=O)O)CCCCC3)o1,-0.306
14,CCOC(=O)c1ccc(N2C(=O)CC(N3CCCC(C)C3)C2=O)cc1 (configuration not stated),0.101
15,CC1=C(C(=O)OC(C)C)C(c2ccccn2)n2ncnc2N1 (configuration not stated),-0.373
16,CCOC(=O)Nc1nc(C)c(C(=O)c2ccc(Cl)cc2)s1,-0.13
17,COc1ccc(-n2c(=S)[nH]c3cc(C(=O)Nc4cccc(C)c4)ccc3c2=O)cc1,-0.179
18,Cc1cc2c3c(c1)C1(SCC(=O)N1c1ccc(F)cc1)C(=O)N3C(C)(C)CC2C (configuration not stated),0.792
19,COc1cc(=O)[nH]c(SCc2c(F)c(F)c(F)c(F)c2F)n1,0.0446
20,CCCC(=O)Nc1ccc2c(c1)C(=O)N(CCC(=O)O)C2=O,-0.0953
21,CCCc1[nH]nc2c1C(c1ccc(OC)cc1OC)C(C#N)=C(N)O2 (configuration not stated),-1.19
22,COCCCNCCCCOc1c(Cl)cc(C)cc1Br,0.275
23,O=C(COc1ccc(Cl)cc1)NNC(=O)c1ccccn1,1.58

row,Structure (SMILES),z-score
1,COC(=O)c1ccc(Cc2ccc(C(=O)OC)o2)o1,0.0151
2,Clc1ccc(Cn2ccc(-c3ccc4c(c3)OCO4)n2)cc1Cl,0.0456
3,Cc1cccc(N2CCN(C(=O)c3csc4ccccc34)CC2C)c1 (configuration not stated),-0.19
4,O=S(=O)(c1ccc(S(=O)(=O)N(Cc2ccccc2)Cc2ccco2)cc1)N1CCCC1,-0.0707
5,CO/N=C/NC(=O)c1c(OC)ccnc1Oc1cccc(C(F)(F)F)c1,0.0176
6,Cc1ccccc1CS(=O)(=O)c1cnc2ccccc2n1,-0.131
7,COCCn1c(SCC(=O)N2CCCc3ccccc32)nc2ccccc2c1=O,-0.842
8,CCC(Oc1ccccc1)C(=O)Nc1nnc(C)s1 (configuration not stated),0.917
9,Cc1ccc(OCCNC(=O)C2CC(=O)N(c3ccc(C)cc3)C2)cc1 (configuration not stated),-0.0323
10,Nc1nncn1C(=O)c1ccccc1Cl,-0.069
11,COc1cc(/C=C(\C#N)c2nc3ccccc3[nH]2)cc(Br)c1OCc1ccc(F)cc1,-0.315
12,O=C(CCC1CCCC1)NCc1cccs1,0.00205
13,COc1ccc(-n2c(NC(=O)c3ccc(Br)o3)c(C#N)c3nc4ccccc4nc32)cc1,-0.207
14,Cn1c(=O)[nH]c(=O)c2c1nc(N1CCc3ccccc3C1)n2CCSc1nc2ccccc2s1,-0.187
15,NC(=O)c1cccnc1Nc1cccc(F)c1,-0.19
16,CCn1c2ccccc2c2cc(NC(=O)CCCN3C(=O)CCC3=O)ccc21,-0.0727
17,O=C(O)c1ccc(C(=O)Nc2cccc(NC(=O)C3CCCO3)c2)cc1 (configuration not stated),0.229
18,Nc1cc(=O)[nH]c(SCc2cccc(Cl)c2)n1,-0.406
19,COc1nc(OC)nc(N2CCC(C(=O)NCc3cccs3)CC2)n1,-1.94
20,C=C(C)CSCc1nc2ccccc2[nH]1,1.21
